Laboratory results reported in patent publication US4690926A, “Boxazomycin A and B, new antibiotics containing benzoxazole nucleus” (Bristol-Myers Company, priority 1986, dated 1987).

Test system: Gram-positive aerobic and Gram-positive/Gram-negative anaerobic organisms
Assay: In vitro antibacterial spectrum (in words)
Format: cell-based
Details: for effect of acidic medium on activity: acidic media; for antibacterial spectrum: in vitro

SMILES | effect of acidic medium on activity | antibacterial spectrum
Cc1cc(O)c(C(N)=O)c2nc(-c3nc(CO)ncc3O)oc12 [Boxazomycin A] | enhanced activity observed in acidic medium | inhibit growth of aerobic Gram-positive bacteria and anaerobes
Cc1ncc(O)c(-c2nc3c(C(N)=O)c(O)cc(C)c3o2)n1 [Boxazomycin B] | enhanced activity observed in acidic medium | inhibit growth of aerobic Gram-positive bacteria and anaerobes
